{"source": "paper PMC4336329", "about": "(PLoS ONE, 2015)", "note": "Among all 310,000 compounds or so, about 2,200 (0.71%) showed an effect of 50% or more. Effects have a minus sign here. The list shows a part of the results.", "data": [{"target": "human ether-à-go-go-related gene (hERG) potassium channel (human, UniProt Q12809)", "sequence (Q12809 whole entry, looked up)": "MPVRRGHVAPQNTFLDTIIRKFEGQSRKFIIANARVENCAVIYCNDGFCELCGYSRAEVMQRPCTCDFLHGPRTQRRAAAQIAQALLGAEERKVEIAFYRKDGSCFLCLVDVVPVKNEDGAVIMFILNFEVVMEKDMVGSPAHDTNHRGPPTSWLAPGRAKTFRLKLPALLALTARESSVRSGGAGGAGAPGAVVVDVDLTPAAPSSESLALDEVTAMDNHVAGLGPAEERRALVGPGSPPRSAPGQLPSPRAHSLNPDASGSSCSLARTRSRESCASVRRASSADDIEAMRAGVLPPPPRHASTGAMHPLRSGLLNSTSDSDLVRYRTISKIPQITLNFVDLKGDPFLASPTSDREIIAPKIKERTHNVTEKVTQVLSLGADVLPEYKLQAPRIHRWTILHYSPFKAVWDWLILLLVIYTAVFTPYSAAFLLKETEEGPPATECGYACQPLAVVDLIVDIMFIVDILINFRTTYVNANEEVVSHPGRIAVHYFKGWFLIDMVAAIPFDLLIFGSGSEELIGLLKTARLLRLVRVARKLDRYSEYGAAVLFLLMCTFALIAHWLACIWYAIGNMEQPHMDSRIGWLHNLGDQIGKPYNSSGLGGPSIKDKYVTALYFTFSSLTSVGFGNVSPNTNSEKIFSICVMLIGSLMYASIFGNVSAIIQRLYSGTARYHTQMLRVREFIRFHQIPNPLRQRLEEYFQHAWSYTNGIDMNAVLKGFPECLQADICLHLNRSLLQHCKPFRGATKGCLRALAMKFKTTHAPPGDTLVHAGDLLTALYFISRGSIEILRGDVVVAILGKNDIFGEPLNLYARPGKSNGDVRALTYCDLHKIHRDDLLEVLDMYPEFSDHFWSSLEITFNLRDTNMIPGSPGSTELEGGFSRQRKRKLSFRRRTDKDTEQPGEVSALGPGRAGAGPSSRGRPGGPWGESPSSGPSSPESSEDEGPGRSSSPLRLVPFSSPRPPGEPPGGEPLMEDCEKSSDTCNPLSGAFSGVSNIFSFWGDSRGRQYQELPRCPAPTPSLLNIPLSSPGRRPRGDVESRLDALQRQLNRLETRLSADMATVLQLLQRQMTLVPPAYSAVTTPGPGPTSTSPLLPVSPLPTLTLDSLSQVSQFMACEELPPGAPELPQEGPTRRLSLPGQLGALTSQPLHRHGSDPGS", "assay": "primary screen, population patch clamp on CHO cells stably expressing hERG", "units": {"hERG current change (%, negative = inhibition) at 1uM": "%"}, "values": [{"smiles": "COc1cccc(CNC(=O)C(=O)NCC(c2ccco2)N2CCOCC2)c1", "note": "(stereo not drawn)", "hERG current change (%, negative = inhibition) at 1uM": 10.9}, {"smiles": "COC(=O)[C@@H]1CCCN1C(=O)CCc1nnc(CCC2CCCCC2)o1", "hERG current change (%, negative = inhibition) at 1uM": 14.2}, {"smiles": "N#Cc1ccc(OCC(=O)NC2=NCCS2)cc1", "hERG current change (%, negative = inhibition) at 1uM": 10.5}, {"smiles": "COCCNc1cc(C)nc2c3c(C)cc(C)nc3nn12", "hERG current change (%, negative = inhibition) at 1uM": 2.82}, {"smiles": "COc1ccc2nc(N3CCCC(C(=O)NCCc4ccc(OC)c(OC)c4)C3)sc2c1", "note": "(stereo not drawn)", "hERG current change (%, negative = inhibition) at 1uM": 7.19}, {"smiles": "O=C(COC(=O)c1sc2ccccc2c1Cl)NC1CCCCC1", "hERG current change (%, negative = inhibition) at 1uM": 14.2}, {"smiles": "S=C(NCCN1CCOCC1)Nc1ccc(Br)cc1", "hERG current change (%, negative = inhibition) at 1uM": 12.7}, {"smiles": "Cc1c(Cl)cccc1Nc1nc(N)nc(CN2CCc3ccccc3C2)n1", "hERG current change (%, negative = inhibition) at 1uM": 1.02}, {"smiles": "O=C1C2C(C(=O)N1/N=C/c1cc(Br)cc([N+](=O)[O-])c1O)C1C=CC2C12CC2", "note": "(stereo not drawn)", "hERG current change (%, negative = inhibition) at 1uM": 10.3}, {"smiles": "CC(C)CCOCc1nc2sc3c(c2c(=O)[nH]1)CCC(C)C3", "note": "(stereo not drawn)", "hERG current change (%, negative = inhibition) at 1uM": 1.63}, {"smiles": "CCn1cnc2c1c(=O)n(CC(=O)Nc1ccc3c(c1)OC(F)(F)O3)c(=O)n2Cc1ccccc1", "hERG current change (%, negative = inhibition) at 1uM": -5.09}, {"smiles": "O=C(COC(=O)Cc1ccc(Cl)cc1)Nc1ccc(OC(F)F)cc1", "hERG current change (%, negative = inhibition) at 1uM": 6.61}, {"smiles": "Cc1ccccc1OCC(=O)Nc1cccc(S(=O)(=O)NC2=NCCC2)c1", "hERG current change (%, negative = inhibition) at 1uM": -0.486}, {"smiles": "COc1ccc(C2CCCN2C(=O)c2cccs2)cc1", "note": "(stereo not drawn)", "hERG current change (%, negative = inhibition) at 1uM": 12.4}, {"smiles": "COc1ccc(OC)c(NC(=O)COC(=O)c2n[nH]c3ccccc23)c1", "hERG current change (%, negative = inhibition) at 1uM": 12.6}, {"smiles": "Cc1nn(C)cc1/C=N/NC(=O)c1ccco1", "hERG current change (%, negative = inhibition) at 1uM": 7.66}, {"smiles": "CC(/C=C/c1ccc(N(C)C)cc1)=N/N=C1/NC(=O)CC(C(=O)Nc2ccc(Cl)cc2)S1", "note": "(stereo not drawn)", "hERG current change (%, negative = inhibition) at 1uM": 6.42}, {"smiles": "CC(=O)Oc1ccccc1N(C(C)=O)S(=O)(=O)c1ccc2ccccc2c1", "hERG current change (%, negative = inhibition) at 1uM": 17.1}, {"smiles": "CN1CCN(C(=S)Nc2ccc([N+](=O)[O-])cc2)CC1", "hERG current change (%, negative = inhibition) at 1uM": 1.7}, {"smiles": "Nc1nc(SCC(=O)N2CCCCCC2)[nH]c(=O)c1NC(=O)c1ccco1", "hERG current change (%, negative = inhibition) at 1uM": 12.6}, {"smiles": "CCOC(=O)C1CCN(/C=C2\\C(=O)NC(=S)N(CC)C2=O)CC1", "hERG current change (%, negative = inhibition) at 1uM": 6.14}, {"smiles": "Cc1ccc(CNS(=O)(=O)c2c(C)[nH]c(C)c2C(=O)N2CCCCC2)o1", "hERG current change (%, negative = inhibition) at 1uM": 10}, {"smiles": "O=C(Cn1c(=O)cnc2ccccc21)NNC(=O)c1ccccc1Cl", "hERG current change (%, negative = inhibition) at 1uM": 13.3}, {"smiles": "S=c1nc(-c2csc3c2CCCC3)[nH][nH]1", "hERG current change (%, negative = inhibition) at 1uM": 20.6}, {"smiles": "Cc1cc(C)n(Cc2ccc(C(=O)NN)o2)n1", "hERG current change (%, negative = inhibition) at 1uM": 10.4}, {"smiles": "CCn1ccnc1CN(C)C(=O)CCc1nnc(CCC2CCCCC2)o1", "hERG current change (%, negative = inhibition) at 1uM": -5.97}, {"smiles": "COC(=O)C1=C(c2cccc(OC)c2OC)C[C@@H]2CC[C@H]1N2C(=O)NC1CC1", "hERG current change (%, negative = inhibition) at 1uM": 15.4}, {"smiles": "Cc1ccc(NC(=O)CCCCCC2NC(=O)NC2C)cc1", "note": "(stereo not drawn)", "hERG current change (%, negative = inhibition) at 1uM": -0.122}, {"smiles": "CCOc1ccc(S(=O)(=O)N(CC(=O)Nc2cccnc2)c2ccc(F)cc2)cc1", "hERG current change (%, negative = inhibition) at 1uM": 7.51}, {"smiles": "CCCC1=C(C(=O)OCC)C(c2cc(Cl)cc(OC)c2OCC(=O)OCC)NC(=O)N1", "note": "(stereo not drawn)", "hERG current change (%, negative = inhibition) at 1uM": 13.8}, {"smiles": "Cc1noc(C)c1C(=O)OC(C(=O)NC1CCCC1)c1ccc(F)cc1", "note": "(stereo not drawn)", "hERG current change (%, negative = inhibition) at 1uM": 12.5}, {"smiles": "CCCc1ccc2oc(C(=O)N(C)Cc3ccn[nH]3)c(C)c2c1", "hERG current change (%, negative = inhibition) at 1uM": 9.38}, {"smiles": "CC(C(=O)Nc1ccc(S(=O)(=O)N2CCCC2)cc1)N(C)Cc1ccc(F)cc1", "note": "(stereo not drawn)", "hERG current change (%, negative = inhibition) at 1uM": 4.88}, {"smiles": "COc1ccc(C2CC3(O)CC(C#N)(C(=O)N3)C2(C#N)C#N)cc1", "note": "(stereo not drawn)", "hERG current change (%, negative = inhibition) at 1uM": 18.9}, {"smiles": "Cc1ccc(NC(=O)CSc2nc(O)cc(=O)n2-c2ccc(C)cc2)cc1", "hERG current change (%, negative = inhibition) at 1uM": 15.9}, {"smiles": "CCc1cc(C(=O)Nc2nc(-c3ccccn3)cs2)sc1C", "hERG current change (%, negative = inhibition) at 1uM": 14.3}, {"smiles": "CCOc1ccccc1N1CCN(C(=O)c2ccc3[nH]c(C)c(C)c3c2)CC1", "hERG current change (%, negative = inhibition) at 1uM": 11.6}, {"smiles": "CCOc1ccc(NC(=O)CN(C)c2nnnn2-c2ccccc2)cc1OCC", "hERG current change (%, negative = inhibition) at 1uM": 5.31}, {"smiles": "CCCn1nnc(NC(=S)NC(=O)C(C)(C)C)n1", "hERG current change (%, negative = inhibition) at 1uM": 4.47}, {"smiles": "COc1ccc(C(=O)N/N=C/c2cn[nH]c2-c2ccc(OC)cc2OC)cc1", "hERG current change (%, negative = inhibition) at 1uM": 39.7}, {"smiles": "CCOc1ccc(C2C(C(=O)O)CCC(=O)N2C2CCCCC2)cc1", "note": "(stereo not drawn)", "hERG current change (%, negative = inhibition) at 1uM": 3.64}, {"smiles": "CCOC(=O)c1cnc(-n2nc(C)cc2C)nc1Oc1ccccc1F", "hERG current change (%, negative = inhibition) at 1uM": 7.62}, {"smiles": "CC1CCN(C(C)C(=O)Nc2cc(S(=O)(=O)N3CCCCC3)ccc2Cl)CC1", "note": "(stereo not drawn)", "hERG current change (%, negative = inhibition) at 1uM": 5.41}, {"smiles": "O=C(O)Cn1cc2c(n1)CCCCC2", "hERG current change (%, negative = inhibition) at 1uM": 7.91}, {"smiles": "CCN(CC)S(=O)(=O)c1ccc(N2CCOCC2)c(NC(=O)C(C)(C)C)c1", "hERG current change (%, negative = inhibition) at 1uM": 6.58}]}]}
